According to PubChem BioAssay AID488969 (Vanderbilt High Throughput Screening Facility, 2010):
Over roughly 110,000 compounds, “z-score” has its median near -0.1; the highest 2% begin near 2. The list shows a part of the results. Calls of active or inactive are those of the source.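 The calls were made as follows: active = z-score in the third read window above 3 or below -3; inactive = the rest.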

Biological target: Metabotropic glutamate receptor 8 (Rattus norvegicus) (UniProt P70579)
Experiment: rat mGluR8 modulators via GIRK flux, primary screen, cell-based, thallium flux, HTS (AID 488969)
Conditions: HEK293 rat mGluR8, GIRK (G protein-gated inwardly rectifying potassium channel) thallium flux, FluoZin2; at 10 µM; stronger effect = higher value; submaximal glutamate (EC20) added with thallium

Chain of UniProt P70579 (P70579 whole entry, looked up): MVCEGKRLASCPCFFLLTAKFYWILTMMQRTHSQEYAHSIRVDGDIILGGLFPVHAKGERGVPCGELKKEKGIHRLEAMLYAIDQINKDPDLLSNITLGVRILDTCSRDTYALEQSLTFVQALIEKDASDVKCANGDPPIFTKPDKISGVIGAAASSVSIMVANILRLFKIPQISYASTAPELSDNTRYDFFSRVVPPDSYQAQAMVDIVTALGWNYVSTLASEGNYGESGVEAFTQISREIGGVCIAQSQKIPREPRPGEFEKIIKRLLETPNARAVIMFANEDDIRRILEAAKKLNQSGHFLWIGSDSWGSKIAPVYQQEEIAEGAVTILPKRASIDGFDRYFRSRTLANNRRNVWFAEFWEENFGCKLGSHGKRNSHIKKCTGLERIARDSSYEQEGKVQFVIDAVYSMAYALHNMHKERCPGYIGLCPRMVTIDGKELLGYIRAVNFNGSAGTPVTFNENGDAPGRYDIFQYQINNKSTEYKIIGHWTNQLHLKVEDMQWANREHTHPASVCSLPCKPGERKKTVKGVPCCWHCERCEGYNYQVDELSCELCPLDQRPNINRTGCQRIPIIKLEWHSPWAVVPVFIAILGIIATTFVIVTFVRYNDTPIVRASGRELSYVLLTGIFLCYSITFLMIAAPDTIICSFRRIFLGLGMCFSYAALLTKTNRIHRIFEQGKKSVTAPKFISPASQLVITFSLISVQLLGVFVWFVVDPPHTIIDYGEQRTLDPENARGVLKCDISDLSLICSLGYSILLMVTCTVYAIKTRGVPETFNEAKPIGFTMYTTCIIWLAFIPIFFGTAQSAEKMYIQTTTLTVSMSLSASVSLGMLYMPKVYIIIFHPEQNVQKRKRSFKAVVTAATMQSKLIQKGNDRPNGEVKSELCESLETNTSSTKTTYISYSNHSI

Row | SMILES | z-score
1 | COCCCn1c(SCc2nnc(-c3ccc(OC)c(OC)c3)o2)nnc1-c1ccncc1 | 0.348
2 | CCOC(=O)c1nnn(-c2nonc2-n2cccc2)c1CN1CCOCC1 | -0.0612
3 | O=C(CSc1nnc(-c2ccc(Cl)cc2)n1Cc1ccco1)NCc1ccc2c(c1)OCO2 | -0.262
4 | N#CCSc1nc2c(c(C3CC=CCC3)c1C#N)CCC2 (configuration not stated) | -0.591
5 | Cc1cc(NC(=O)CSc2nnc(C3CC3)n2C)no1 | 0.713
6 | O=C(NCc1cccnc1)c1cccc(Cl)c1 | 0.278
7 | Cc1cc(C)n(-c2ccc3cccc(NS(C)(=O)=O)c3n2)n1 | -0.35
8 | Oc1c(Cl)cc(Cl)cc1/C=N/c1nccs1 | -0.379
9 | Cc1sc(NC(=O)C2CCCCC2)c(C#N)c1-c1ccccc1 | 0.0405
10 | Cc1sc2ncn(CC(=O)NCC(=O)N(C)C3CCCCC3)c(=O)c2c1C | -0.0929
11 | Cc1ccc(N2CCN(S(=O)(=O)N3CCCCC3)CC2)cc1Cl | -0.926
12 | Cc1ccc2[nH]c(=O)c(C(c3nnnn3C(C)(C)C)N3CCN(C(=O)c4ccco4)CC3)cc2c1 (configuration not stated) | -0.0115
13 | N#CC(=C1CCCC1)c1nc(-c2ccc(Cl)cc2)cs1 | 0.112
14 | O=C(Nc1cccc(S(=O)(=O)N2CCOCC2)c1)c1cn(-c2ccccc2)nc1-c1ccccc1 | 0.027
15 | CCN(CC)CC(=O)Nc1nn(-c2ccccc2)nc1C(N)=O | -0.412
16 | COc1ccc(CC(=O)Nc2nc(-c3cccnc3)cs2)cc1 | -0.198
17 | CCOc1ccc(N2C(=O)CSC2c2ccncc2)cc1 (configuration not stated) | -0.186
18 | CN1N=C(C(=O)N2CCN(c3ccc([N+](=O)[O-])cc3)CC2)CCC1=O | -0.226
19 | COc1ccc(N(C)S(=O)(=O)c2cccc(C(=O)OCC(=O)Nc3sc4c(c3C#N)CCCCC4)c2)cc1 | 0.379
20 | CN(CCC(=O)Nc1ccc2c(c1)OCO2)Cc1ccccc1 | 0.462
21 | COc1ccc(NC(=O)CSc2n[nH]c(N)n2)c([N+](=O)[O-])c1 | -0.122
22 | Cc1nc2ccc(S(=O)(=O)NC(C(=O)N3CCCC3)C(C)C)cc2s1 (configuration not stated) | -0.206

Row | SMILES | z-score
23 | CC1Cc2cc(/C(O)=C3/C(=O)C(=O)N(CCCn4ccnc4)C3c3ccco3)ccc2O1 (configuration not stated) | -0.193
24 | Cc1c(C(=O)O)cccc1N1C(=O)Nc2ccccc2N1O | -0.0138
25 | CCCCn1c(=NC(=O)c2cccnc2)c(C#N)cc2c(=O)n3cccc(C)c3nc21 | -0.0906
26 | Cc1ccc(NC(=O)COS(=O)c2ccc(C)cc2)cc1 (configuration not stated) | 0.165
27 | CCOC(=O)N1CCC(NC(=O)Cn2ncc3c4ccccc4n(C)c3c2=O)CC1 | 0.0522
28 | O=C(COC(=O)/C=C/c1cccs1)Nc1nc(-c2ccccc2)cs1 | -0.207
29 | Cc1cc(C)nc(NC(=O)CSc2nc3ccccc3s2)n1 | -0.346
30 | COc1cc(C2C(C#N)=C(N)N(c3cccnc3)C3=C2C(=O)CC(C)(C)C3)ccc1O (configuration not stated) | 0.483
31 | CCOC(=O)C1C(=O)OC(C)(C)C1C(C)C(=O)c1ccc(C)cc1 (configuration not stated) | 0.545
32 | COc1ccccc1CNC(=O)C1CC(c2cccc([N+](=O)[O-])c2)=NO1 (configuration not stated) | -0.0624
33 | COc1ccc(NC(=O)CN2CCC(C(N)=O)(N3CCCCC3)CC2)cc1 | -0.0237
34 | COC(=O)C(NC(=O)c1ccccc1)=C1C=C(C)OC(C)=C1 | 0.418
35 | CC1(C)CC(=O)/C(=C(/O)Cc2ccccc2)C(=NCCc2ccccc2)C1 | -0.788
36 | Cn1c(SCC(=O)N(C2CCCCC2)C2CCCCC2)nnc1-c1cccs1 | -0.304
37 | CC(=O)N1CCN(Cc2nc3cc(NC(=O)Cn4nc(C)c5ccccc5c4=O)ccc3n2C)CC1 | -0.472
38 | COc1ccccc1NC(=O)C1CCCN(S(=O)(=O)c2cnc[nH]2)C1 (configuration not stated) | 0.0203
39 | CCN1CCN(Cc2cccc(Oc3ccccc3)c2)CC1 | 0.156
40 | COc1cccc(OCCCCCCN2CCOCC2)c1 | -0.447
41 | CCOC(=O)CSc1nc2ccccc2c(=O)n1CC1CCCC1 | 0.0494
42 | CSCCC(NC(=O)c1cccc(S(=O)(=O)N2CCOCC2)c1)C(=O)Nc1cccc(C)c1 (configuration not stated) | -0.00152
43 | Cc1ccc(C(=O)N2CCc3ccccc32)cc1 | 0.0934
44 | Cc1cc(=O)[nH]c(SCC(=O)N2CCN(C(c3ccccc3)c3ccccc3)CC2)n1 | -0.0424

Row | SMILES | z-score
45 | Cc1cccc(OCC(=O)Nc2ccc(S(=O)(=O)N3CCN(C)CC3)cc2)c1 | 0.101
46 | CCNCc1cc(Br)c(OCC(=O)Nc2ccccc2)c(OC)c1 | 1.18
47 | CCC(=C(c1ccc(OC)cc1)c1ccc(OC)cc1)c1cn(CC(O)CN2CCN(C)CC2)c2ccccc12 (configuration not stated) | 2.63
48 | CCn1cc(C(=O)Nc2ccc(OC)c(S(=O)(=O)N3CCCCC3)c2)c(=O)c2ccc(C)nc21 | 0.769
49 | N#Cc1cc2c(nc1SC1CCCCC1O)CCCC2 (configuration not stated) | -1.1
50 | COc1ccccc1C(=O)Nc1ccc(C(=O)O)cc1 | 0.328
51 | C=CCOc1ccc(C(=O)N(Cc2ccc(N(C)C)cc2)C2CCS(=O)(=O)C2)cc1 (configuration not stated) | -0.168
52 | O=c1c2c(-c3ccc(Cl)cc3)csc2nc2n1CCC2 | -0.149
53 | O=C(N/N=C/c1cc2cc3c(cc2nc1Cl)OCCO3)c1ccccc1O | -0.293
54 | CCN(CC)S(=O)(=O)c1ccc(NC(=O)CN(c2cccc(C)c2)S(C)(=O)=O)cc1 | -0.189
55 | N#C/C(=C(/O)COC(=O)COc1ccc(Cl)cc1)c1nc2ccccc2[nH]1 | 0.27
56 | O=S(=O)(Nc1nc2ccccc2nc1Cl)c1ccc(Cl)cc1 | -0.163
57 | O=c1cc(-c2ccco2)nc(-c2cccs2)o1 | -1.05
58 | O=C(Nc1cccc(-c2nc3cccnc3s2)c1)c1ccco1 | -0.395
59 | CCOC(=O)c1nnn(CC(=O)Nc2cccc(F)c2)c1C(=O)OCC | 0.299
60 | CCOC(=O)C1=C(O)/C(=C/N(C)C)N=C1C | -0.937
61 | COc1ccc(CC(=O)N(c2ccccc2)c2nc(C)cs2)cc1 | -0.721
62 | COc1nnc(-c2ccc(N3CCOCC3)c(NC(=O)C3CCCCC3)c2)c2ccccc12 | -0.35
63 | CCCNC(=O)N1CCC(C(=O)c2ccc(F)cc2)CC1 | 0.695
64 | CC(C)(C)c1ccc(C(=O)NNC(=O)C2CCCCC2)cc1 | 0.0889
65 | N#CCSc1nc2ccc(N3CCOCC3)cc2c(=O)n1CCc1ccccc1 | active: 4.95
66 | COc1cc(C2c3c(oc4ccccc4c3=O)C(=O)N2c2ccc(C)cn2)ccc1O (configuration not stated) | -1.45

Row | SMILES | z-score
67 | Cc1nc2cc(NC(=O)CSc3nc4c(C)cccc4cc3C#N)ccc2s1 | -0.78
68 | COc1ccc(OC)c(C2C(C(=O)Nc3nc4ccccc4s3)=C(C)NC3=C2C(=O)CCC3)c1 (configuration not stated) | 0.113
69 | COc1ccc(Br)c(C(=O)NCCC(C)C)c1 | -0.0271
70 | CCOC(=O)C1C(=O)C=C(/C=C/c2ccccc2)CC1c1ccc(Cl)cc1 (configuration not stated) | -0.123
71 | CCOC(=O)c1csc(NC(=O)CSc2nnnn2-c2ccc(OC)c(OC)c2)n1 | -0.0204
72 | CCN(CC)S(=O)(=O)c1cccc(C(=O)OCC(=O)Nc2ccc3c(c2)c2ccccc2n3CC)c1 | -0.289
73 | Cc1ccc(Sc2cnn(-c3ccccc3)c(=O)c2Cl)cc1 | -0.542
74 | CCCOc1ccc([N+](=O)[O-])cc1C1NC(=S)NC(c2ccccc2)=C1C(=O)OCC (configuration not stated) | -0.0247
75 | FCCCOc1ccc(/C=N/OCc2ccc(Cl)cc2)cc1 | -0.198
76 | CCOc1ccccc1NC(=O)CSc1nnnn1-c1ccc(C(=O)OC)cc1 | 0.0927
77 | O=C(NCc1ccc2c(c1)OCO2)c1ccccn1 | 0.13
78 | Cc1cc(C)c(NC(=O)CCCC(=O)O)c(Cl)c1 | 0.266
79 | Cc1cccc2sc(N(CCCN(C)C)C(=O)c3nc4ccccc4s3)nc12 | -0.466
80 | CCn1c(C)c(C(C)=O)c(SC)nc1=S | 0.134
81 | CN1CCOCCOCCN(C)C1=O | 0.0463
82 | COC(CNC(=O)CCc1c(C)nc2c(-c3ccc(F)cc3)c(C)nn2c1C)OC | -0.287
83 | COC(=O)c1sccc1-n1cccc1C(=O)C(=O)N1CC(C)OC(C)C1 (configuration not stated) | 0.245
84 | Cc1ccc(NCC(=O)N/N=C/c2cc3ccccc3nc2Cl)cc1 | -0.256
85 | CC(C)NC1CS(=O)(=O)CC1O (configuration not stated) | -0.283
86 | CC(NC(=O)CCC(=O)N1CCN(S(=O)(=O)c2ccc(Cl)cc2)CC1)c1ccccc1 (configuration not stated) | -0.321
87 | Clc1ccccc1Cn1nc(-c2ccccc2)nc1-c1ccccc1 | -0.0153
88 | CCOc1ccc(N(CC(=O)N2CCN(c3ccccc3)CC2)S(=O)(=O)c2c(C)noc2C)cc1 | -0.438

Row | SMILES | z-score
89 | O=C(NN1C(=O)C2C3c4ccccc4C(c4ccccc43)C2C1=O)c1ccc(Cl)cc1 (configuration not stated) | -0.105
90 | Cc1ccc(-n2c(SCC(=O)Nc3ccc4cn[nH]c4c3)nnc2-c2ccco2)cc1 | -0.986
91 | O=C1C2CCCCN2C(=O)N1CCCCN1CCN(c2ccc([N+](=O)[O-])cc2)CC1 (configuration not stated) | -0.194
92 | Cc1cccc(N2C(=O)CCC2=O)c1 | 0.199
93 | COC(=O)c1sc(NC(=O)CCCn2nc([N+](=O)[O-])cc2C)c(C(=O)OC)c1C | -0.0586
94 | CCc1nnc(NC(=O)CSc2nnc3scc(-c4ccc(C)cc4)n23)s1 | 0.12
95 | Fc1cccc(Cl)c1-c1nnc2ccc(N3CCOCC3)nn12 | -0.393
96 | COC(=O)c1ccccc1NC(=O)CSc1nnnn1C | -0.337
97 | CNC(=O)c1ccc(-c2ccccc2)s1 | -0.0648
98 | COCCN(Cc1cc2cc3c(cc2nc1Cl)OCO3)C(=O)Nc1ccc(F)cc1 | -0.233
99 | CCOC(=O)c1c(C)cccc1OCC(N)=O | -0.0277
100 | CC(C)NC(=O)c1sc2nc3c(c(-c4cccs4)c2c1N)CN(C)CC3 | -0.212
101 | Cc1ccc(S(=O)(=O)N2CCN(C(=O)CN3CCOCC3)C2)cc1 | -0.149
102 | CCCCSc1nnc(-c2ccc(C)cc2)c2ccccc12 | -0.233
103 | O=C(CSc1nnc(-c2cccnc2)n1-c1ccccc1)N1CCN(c2ccc(F)cc2)CC1 | -0.861
104 | CCOc1ccc(NC(=O)CSc2nnc(C3CC3)n2N)cc1 | 0.0098
105 | COC(=O)c1ccc(CNC(=O)COC(=O)CC23CC4CC(CC(Br)(C4)C2)C3)cc1 | -0.0945
106 | COc1ccc(Cl)cc1NC(=O)C(C)OC(=O)c1ccc(NS(=O)(=O)c2ccc3[nH]c(=O)[nH]c3c2)cc1 (configuration not stated) | -0.699
107 | Cc1ccc(S(=O)(=O)N2CCN(C(=O)C3COc4ccccc4O3)CC2)cc1C (configuration not stated) | -0.222
